Assay results from US7592316B2, “Peptides as NS3-serine protease inhibitors of hepatitis C virus” (Schering Corporation, priority 2000, dated 2009).

Biological target: HCV NS3/NS4A protease (strain 1a) (Hepatitis C virus genotype 1a, UniProt P27958)
Experiment: biochemical
Conditions: Table 5; HCV NS3/NS4A protease, 30° C., pH 6.5; read-out: Ki* Range
Method: Assay for HCV Protease Inhibitory Activity:
Spectrophotometric Assay Spectrophotometric assay for the HCV serine protease was performed on the inventive compounds by following the procedure described by R. Zhang et al, Analytical Biochemistry, 270 (1999) 268-275, the disclosure of which is incorporated herein by reference. The assay based on the proteolysis of chromogenic ester substrates is suitable for the continuous monitoring of HCV NS3 protease activity. The substrates were derived from the P side of the NS5A-NS5B junction sequence (Ac-DTEDWX(Nva), where X=A or chromophoric alcohols (3- or 4-nitrophenol, 7-hydroxy-4-methyl-coumarin, or 4-phenylazophenol). Presented below are the synthesis, characterization and application of these novel spectrophotometric ester substrates to high throughput screening and detailed kinetic evaluation of HCV NS3 protease inhibitors.
Protein concentrations were determined by the Biorad dye method using recombinant HCV protease standards previously quantified by amino acid analysis. Prior to assay initiation, the enzyme storage buffer (50 mM sodium phosphate pH 8.0, 300 mM NaCl, 10% glycerol, 0.05% lauryl maltoside and 10 mM DTT) was exchanged for the assay buffer (25 mM MOPS pH 6.5, 300 mM NaCl, 10% glycerol, 0.05% lauryl maltoside, 5 μM EDTA and 5 μM DTT) utilizing a Biorad Bio-Spin P-6 prepacked column.
Protease Assay: HCV protease assays were performed at 30° C. using a 200 μl reaction mix in a 96-well microtiter plate. Assay buffer conditions (25 mM MOPS pH 6.5, 300 mM NaCl, 10% glycerol, 0.05% lauryl maltoside, 5 μM EDTA and 5 μM DTT) were optimized for the NS3/NS4A heterodimer (D. L. SalI et al, ibid.)). […] Fifty μls of prewarmed protease (12 nM, 30° C.) in assay buffer, was then used to initiate the reaction (final volume 200 μl). The plates were monitored over the length of the assay (60 minutes) for change in absorbance at the appropriate wavelength (340 nm for 3-Np and HMC, 370 nm for PAP, and 400 nm for 4-Np) using a Spectromax Plus microtiter plate reader equipped with a monochrometer (acceptable results can be obtained with plate readers that utilize cutoff filters). Proteolytic cleavage of the ester linkage between the Nva and the chromophore was monitored at the appropriate wavelength against a no enzyme blank as a control for non-enzymatic hydrolysis. The evaluation of substrate kinetic parameters was performed over a 30-fold substrate concentration range (˜6-200 μM). Initial velocities were determined using linear regression and kinetic constants were obtained by fitting the data to the Michaelis-Menten equation using non-linear regression analysis (Mac Curve Fit 1.1, K. Raner). Turnover numbers (kcat) were calculated assuming the enzyme was fully active.
The resulting data were fitted using linear regression and the resulting slope, 1/(Ki*(1+[S] o/Km), was used to calculate the Ki* value.

Compound	Ki [nM]
COCC(NC(=O)[C@@H]1[C@@H]2[C@H](CN1C(=O)[C@@H](NC(=O)OC(C)(C)C)C1CCCCC1)C2(C)C)C(=O)C(=O)NCCC(=O)OC(C)(C)C (some centres unmarked)	1 to 100
C=CCCC(NC(=O)[C@@H]1[C@@H]2[C@H](CN1C(=O)[C@@H](NC(=O)NC(C)(C)C)C(C)(C)C)C2(C)C)C(=O)C(=O)NCCC(=O)OC(C)(C)C (some centres unmarked)	1 to 100
C=CCNC(=O)C(=O)C(CCC)NC(=O)[C@@H]1CC(OS(=O)(=O)c2ccc(CN)cc2)CN1C(=O)[C@@H](NC(=O)NC(C)(C)C)C1CCCCC1 (some centres unmarked)	> 1000
C=CCCC(NC(=O)[C@@H]1[C@@H]2[C@H](CN1C(=O)[C@@H](NC(=O)NC13CC4CC(CC(C4)C1)C3)C1CCCCC1)C2(C)C)C(=O)C(=O)NCC(=O)NCc1ccccc1 (some centres unmarked)	1 to 100
C#CCCNC(=O)C(=O)C(CCC=C)NC(=O)[C@@H]1[C@@H]2[C@H](CN1C(=O)[C@@H](NC(=O)NC13CC4CC(CC(C4)C1)C3)C1CCCCC1)C2(C)C (some centres unmarked)	1 to 100
C=CCCC(NC(=O)[C@@H]1[C@@H]2[C@H](CN1C(=O)[C@@H](NC(=O)OC(C)(C)C)C1CCCCC1)C2(C)C)C(=O)C(=O)NCCC(=O)NC(C)(C)C (some centres unmarked)	1 to 100
CCCC(NC(=O)[C@@H]1[C@H]2[C@@H](CN1C(=O)C(NC(=O)OC(C)(C)C)C1CCCCC1)C2(C)C)C(=O)C(=O)NCCNC(=O)c1ccccc1 (some centres unmarked)	101 to 1000
CCCC(NC(=O)[C@@H]1[C@H]2[C@@H](CN1C(=O)C(NC(=O)OC(C)(C)C)C1CCCCC1)C2(C)C)C(=O)C(=O)NCC(=O)NC1CC1 (some centres unmarked)	1 to 100
CCCC(NC(=O)[C@@H]1[C@H]2[C@@H](CN1C(=O)C(NC(=O)OC(C)(C)C)C1CCCCC1)C2(C)C)C(=O)C(=O)NCC(=O)NC1CCCCC1 (some centres unmarked)	101 to 1000
C=CCNC(=O)C(=O)C(CCC)NC(=O)[C@@H]1[C@H]2[C@@H](CN1C(=O)[C@@H](NC(=O)OC(C)(C)C)C1CC3CCCCC3C1)C2(C)C (some centres unmarked)	101 to 1000
C=CCNC(=O)C(=O)C(CCC)NC(=O)[C@@H]1[C@H]2[C@@H](CN1C(=O)[C@@H](NC(=O)OC13CCCC(CC4CC41)C3)C1Cc3ccccc3C1)C2(C)C (some centres unmarked)	101 to 1000
C=CCCNC(=O)C(=O)C(CCC=C)NC(=O)[C@@H]1[C@@H]2[C@H](CN1C(=O)C(NC(=O)OC(C)(C)C)C1Cc3ccccc3C1)C2(Cl)Cl (some centres unmarked)	1 to 100
C=CCCC(NC(=O)[C@@H]1[C@@H]2[C@H](CN1C(=O)[C@@H](NC(=O)OC(C)(C)C)C1CCCCC1)C2(C)C)C(=O)C(=O)NCCS(=O)(=O)C(C)(C)C (some centres unmarked)	1 to 100
CCCC(NC(=O)[C@@H]1C[C@@H](OC(C)(C)C)CN1C(=O)[C@@H](NC(=O)OC(C)(C)C)C1CCCCC1)C(=O)C(=O)NCCC(=O)OC(C)(C)C (some centres unmarked)	> 1000
CCCC(NC(=O)[C@@H]1C[C@@H](OC(C)(C)C)CN1C(=O)[C@@H](NC(=O)OC(C)(C)C)C(C)(C)C)C(=O)C(=O)NCCC(=O)OC(C)(C)C (some centres unmarked)	> 1000
CC(C)(C)OC(=O)CCNC(=O)C(=O)C(CC(F)(F)F)NC(=O)[C@@H]1[C@@H]2[C@H](CN1C(=O)[C@@H](NC(=O)OC(C)(C)C)C1CCCCC1)C2(C)C (some centres unmarked)	101 to 1000
C=CCCC(NC(=O)[C@@H]1[C@@H]2[C@H](CN1C(=O)[C@@H](NC(=O)NC(C)(C)C)C1CCCCC1)C2(C)C)C(=O)C(=O)NCCC(=O)OC(C)(C)C (some centres unmarked)	1 to 100
C=CCCNC(=O)C(=O)C(CCC=C)NC(=O)[C@@H]1[C@H]2[C@@H](CN1C(=O)[C@@H](N)C(C)(C)C)C2(Cl)Cl (some centres unmarked)	> 1000
C=CCCC(NC(=O)[C@@H]1[C@@H]2[C@H](CN1C(=O)[C@@H](NC(=O)NC13CC4CC(CC(C4)C1)C3)C1CCCCC1)C2(C)C)C(=O)C(=O)NCCC(=O)OC1(C)CCCC1 (some centres unmarked)	1 to 100
C=CCCC(NC(=O)[C@@H]1[C@@H]2[C@H](CN1C(=O)[C@@H](NC(=O)NC13CC4CC(CC(C4)C1)C3)C1CCCCC1)C2(C)C)C(=O)C(=O)NCCC(=O)OC12CC3CC(CC(C3)C1)C2 (some centres unmarked)	> 1000
C=CCCC(NC(=O)[C@@H]1[C@@H]2[C@H](CN1C(=O)[C@@H](NC(=O)NC13CC4CC(CC(C4)C1)C3)C1CCCCC1)C2(C)C)C(=O)C(=O)NCCC(=O)OC(CC)(CC)CC (some centres unmarked)	101 to 1000

Compound	Ki [nM]
C=CCCNC(=O)C(=O)C(CCC=C)NC(=O)C(CCC(C)C)NC(=O)OCC1c2ccccc2-c2ccccc21 (centres unmarked)	> 1000
COCC(NC(=O)[C@@H]1[C@@H]2[C@H](CN1C(=O)[C@@H](NC(=O)OC(C)(C)C)C(C)(C)C)C2(C)C)C(=O)C(=O)NCCC(=O)OC(C)(C)C (some centres unmarked)	101 to 1000
COCC(NC(=O)[C@@H]1[C@@H]2[C@H](CN1C(=O)[C@@H](NC(=O)OC(C)(C)C)C1Cc3ccccc3C1)C2(C)C)C(=O)C(=O)NCCC(=O)OC(C)(C)C (some centres unmarked)	101 to 1000
C=CCNC(=O)C(=O)C(CCC)NC(=O)[C@@H]1[C@H]2[C@@H](CN1C(=O)C(NC(=O)OC1CCC(C)C1)C1CCCCC1)C2(C)C (some centres unmarked)	1 to 100
C=CCNC(=O)C(=O)C(CCC)NC(=O)[C@@H]1[C@H]2[C@@H](CN1C(=O)C(NC(=O)OC1CC(C)CC1C)C1CCCCC1)C2(C)C (some centres unmarked)	1 to 100
C=CCNC(=O)C(=O)C(CCC)NC(=O)[C@@H]1[C@H]2[C@@H](CN1C(=O)C(NC(=O)OCCOc1ccccc1)C1CCCCC1)C2(C)C (some centres unmarked)	101 to 1000
C=CCCNC(=O)C(=O)C(CCC=C)NC(=O)[C@@H]1[C@H]2[C@@H](CN1C(=O)C(NC(=O)NC(C)(C)C)C(C)(C)C)C2(Cl)Cl (some centres unmarked)	1 to 100
C=CCCNC(=O)C(=O)C(CCC=C)NC(=O)[C@@H]1[C@H]2[C@@H](CN1C(=O)C(NC(=O)NC1CCCCC1)C(C)(C)C)C2(Cl)Cl (some centres unmarked)	101 to 1000
C=CCCNC(=O)C(=O)C(CCC=C)NC(=O)[C@@H]1[C@H]2[C@@H](CN1C(=O)C(NC(=O)NC13CC4CC(CC(C4)C1)C3)C(C)(C)C)C2(Cl)Cl (some centres unmarked)	1 to 100
C=CCCNC(=O)C(=O)C(CCC=C)NC(=O)[C@@H]1[C@H]2[C@@H](CN1C(=O)C(NC(=O)OC(C)(C)C)C1CCCCC1)C2(Cl)Cl (some centres unmarked)	1 to 100
C=CCNC(=O)C(=O)C(CCC)NC(=O)[C@@H]1[C@H]2[C@@H](CN1C(=O)C(NC(=O)OC1CCCC1C1CCCC1)C1CCCCC1)C2(C)C (some centres unmarked)	1 to 100
C=CCCC(NC(=O)[C@@H]1[C@@H]2[C@H](CN1C(=O)[C@@H](NC(=O)OC(C)(C)C)C1CCCCC1)C2(C)C)C(=O)C(=O)NCCC(=O)OC1(C)CC1 (some centres unmarked)	1 to 100
C=CCCC(NC(=O)[C@@H]1[C@@H]2[C@H](CN1C(=O)[C@@H](NC(=O)OC(C)(C)C)C1CCCCC1)C2(C)C)C(=O)C(=O)NCCC(=O)N(C)C(C)(C)C (some centres unmarked)	1 to 100
C=CCCNC(=O)C(=O)C(CCC=C)NC(=O)[C@@H]1[C@H]2[C@@H](CN1C(=O)C(NC(=O)NC(C)(C)C)C1CCCCC1)C2(Cl)Cl (some centres unmarked)	1 to 100
C=CCCNC(=O)C(=O)C(CCC=C)NC(=O)[C@@H]1[C@H]2[C@@H](CN1C(=O)C(NC(=O)NC1CC3CCC1C3)C1CCCCC1)C2(Cl)Cl (some centres unmarked)	1 to 100
C=CCCNC(=O)C(=O)C(CCC=C)NC(=O)[C@@H]1[C@H]2[C@@H](CN1C(=O)C(NC(=O)OC(C)C)C1CCCCC1)C2(Cl)Cl (some centres unmarked)	1 to 100
C=CCCC(NC(=O)[C@@H]1[C@@H]2[C@H](CN1C(=O)[C@@H](NC(=O)OC(C)(C)C)C1CCCCC1)C2(C)C)C(=O)C(=O)NCCC(=O)OC(C)(C)Cc1ccccc1 (some centres unmarked)	101 to 1000
C=CCCC(NC(=O)[C@@H]1[C@@H]2[C@H](CN1C(=O)[C@@H](NC(=O)OC(C)(C)C)C1CCCCC1)C2(C)C)C(=O)C(=O)NCCC(=O)N1CC1 (some centres unmarked)	1 to 100
C=CCCC(NC(=O)[C@@H]1[C@@H]2[C@H](CN1C(=O)[C@@H](NC(=O)NC(C)(C)C)C(C)(C)C)C2(C)C)C(=O)C(=O)NCCC(=O)OC1(C)CCCC1 (some centres unmarked)	1 to 100
C=CCNC(=O)C(=O)C(CCC)NC(=O)[C@@H]1C2CC(C)(C)CC2CN1C(=O)[C@@H](NC(=O)OC(C)(C)C)C1CCCCC1 (some centres unmarked)	> 1000
